From publication PMC5722342 come the findings set out here.

Protein sequences, listed by entry. Tags and fused reporters are not part of them.
UniProt Q9UKV5: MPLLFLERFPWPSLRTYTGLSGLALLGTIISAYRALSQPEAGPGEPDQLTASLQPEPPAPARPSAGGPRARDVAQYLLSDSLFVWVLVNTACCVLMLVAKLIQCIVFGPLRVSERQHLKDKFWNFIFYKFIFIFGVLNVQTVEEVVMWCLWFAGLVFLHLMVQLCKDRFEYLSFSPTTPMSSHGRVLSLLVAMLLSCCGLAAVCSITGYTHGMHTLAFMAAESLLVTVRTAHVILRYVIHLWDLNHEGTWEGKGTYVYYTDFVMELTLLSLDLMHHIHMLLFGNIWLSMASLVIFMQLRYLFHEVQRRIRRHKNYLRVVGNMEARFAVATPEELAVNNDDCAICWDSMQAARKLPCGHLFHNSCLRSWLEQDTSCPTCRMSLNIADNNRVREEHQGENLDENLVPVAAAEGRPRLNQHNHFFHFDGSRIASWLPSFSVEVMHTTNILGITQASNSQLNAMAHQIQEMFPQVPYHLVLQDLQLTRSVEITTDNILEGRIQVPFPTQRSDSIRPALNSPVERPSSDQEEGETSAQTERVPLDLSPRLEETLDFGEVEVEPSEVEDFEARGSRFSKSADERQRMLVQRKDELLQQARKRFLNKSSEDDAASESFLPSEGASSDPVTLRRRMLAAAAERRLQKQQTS
UniProt Q99942: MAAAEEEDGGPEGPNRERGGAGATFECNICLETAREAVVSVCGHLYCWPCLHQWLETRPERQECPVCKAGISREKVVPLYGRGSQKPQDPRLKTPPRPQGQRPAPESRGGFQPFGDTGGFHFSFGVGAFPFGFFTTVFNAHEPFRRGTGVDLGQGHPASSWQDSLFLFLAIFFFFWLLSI
UniProt Q86TM6: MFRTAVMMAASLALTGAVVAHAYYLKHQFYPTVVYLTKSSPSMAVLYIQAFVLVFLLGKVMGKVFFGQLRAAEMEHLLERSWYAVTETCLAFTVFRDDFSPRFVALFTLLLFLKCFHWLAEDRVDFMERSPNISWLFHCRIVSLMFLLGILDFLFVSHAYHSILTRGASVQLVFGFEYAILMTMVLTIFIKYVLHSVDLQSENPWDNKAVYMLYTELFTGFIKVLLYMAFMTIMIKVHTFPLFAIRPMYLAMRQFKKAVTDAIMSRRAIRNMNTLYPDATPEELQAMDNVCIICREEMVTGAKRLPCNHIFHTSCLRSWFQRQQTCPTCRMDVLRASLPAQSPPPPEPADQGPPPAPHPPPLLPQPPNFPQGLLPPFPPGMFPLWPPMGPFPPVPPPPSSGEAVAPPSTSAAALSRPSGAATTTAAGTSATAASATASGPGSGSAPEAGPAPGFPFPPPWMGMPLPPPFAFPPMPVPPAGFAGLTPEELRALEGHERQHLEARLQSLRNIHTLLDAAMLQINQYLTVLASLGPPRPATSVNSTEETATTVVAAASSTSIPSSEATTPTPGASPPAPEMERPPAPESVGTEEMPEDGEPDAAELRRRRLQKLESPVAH
UniProt Q7Z434: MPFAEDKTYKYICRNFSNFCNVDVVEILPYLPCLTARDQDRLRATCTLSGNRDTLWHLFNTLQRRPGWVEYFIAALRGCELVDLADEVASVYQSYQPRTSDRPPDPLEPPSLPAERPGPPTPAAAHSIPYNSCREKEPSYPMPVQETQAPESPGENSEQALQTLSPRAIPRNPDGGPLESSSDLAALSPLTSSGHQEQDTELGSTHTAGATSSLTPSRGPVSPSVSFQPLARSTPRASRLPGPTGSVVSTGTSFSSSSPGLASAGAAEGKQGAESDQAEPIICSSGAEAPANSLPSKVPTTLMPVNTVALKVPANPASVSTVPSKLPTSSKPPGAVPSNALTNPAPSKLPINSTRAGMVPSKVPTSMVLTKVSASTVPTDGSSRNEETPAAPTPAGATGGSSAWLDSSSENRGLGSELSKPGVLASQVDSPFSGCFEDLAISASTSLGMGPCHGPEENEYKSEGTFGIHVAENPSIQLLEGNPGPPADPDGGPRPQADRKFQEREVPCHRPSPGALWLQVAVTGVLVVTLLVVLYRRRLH

Experiment [1] has as its target GP78 (UniProt Q9UKV5). Kind of experiment: co-IP; HEK293T cells transfected with the indicated plasmids, in some panels with shRNA against iRhom2, GP78 or RNF5; NP-40 lysis buffer; immunoprecipitation and immunoblot with the indicated antibodies (Fig 5C, 6A, 6C, 7A, 7E, 7F, 8A, S7 Fig).
The target of experiment [2] is RNF5 (endogenous) (human (endogenous in HEK293 and HEK293T)) (UniProt Q99942). Kind of experiment: co-IP.
Experiment [3] has as its target GP78 (UniProt Q9UKV5). Kind of experiment: co-IP.
In the next experiment the target is HRD1 (UniProt Q86TM6). Kind of experiment: co-IP.
In the next experiment the target is VCP (UniProt P55072). Kind of experiment: co-IP.
For another experiment, the target named is RNF5 (UniProt Q99942). Kind of experiment: co-IP; HEK293T cells transfected with the indicated plasmids, in some panels with shRNA against iRhom2, GP78 or RNF5; NP-40 lysis buffer; immunoprecipitation and immunoblot with the indicated antibodies (Fig 5C, 6A, 6C, 7A, 7E, 7F, 8A, S7 Fig).

Results are given in words; binding and its absence hold for the method and conditions named. Binding seen in cells or lysates may run through a third protein. Some entries that bind do so weakly or less than the wild type.

On to RNF5 (from UniProt Q99942 1-180), for which the binding entry in the experiment with GP78 [1] was “binds”.
In the case of “VISA (endogenous) (from UniProt Q7Z434 1-540)”, in experiment [2], the binding result was “binds”.
Take VISA (from UniProt Q7Z434 1-540): the binding entry with GP78 [3], in the experiment with HRD1, in the experiment with VCP and with RNF5 was “binds” in each case.
